The other results are listed elsewhere or left out.

This test relates to PfAP2-HC AP2 domain (GST-tagged). As to the kind of experiment: gcPBM binding intensity (ln(normalized median fluorescence intensity)); higher = stronger DNA binding. In a few lines:
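Binding of GST-tagged P. falciparum DNA-binding domains, expressed in E. coli and used at about 25 μg on average, was carried out for 1 h in 1× PBS containing 1% milk, 0.2 mg/ml BSA, 0.5% salmon testes DNA and 0.03% Triton X-100. The target was an Agilent 4 × 180k array of primer-extended double-stranded 36-bp intergenic genomic probes plus negative controls, read with Alexa488 anti-GST antibody at 488 nm. Binding intensity is the highest Masliner-normalised natural-log median intensity across replicate spots of either probe orientation.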
With “AAAAGAAAAAAAAGTACACACATGTATATTAAGCGT [CACACA_site5402]”, the “gcPBM binding intensity (ln)” value was 10.1.
Consider “TTAATGTACAGACACCCACACACAAACAAATATATA [CACACA_site8888]”, for which the “gcPBM binding intensity (ln)” value turned out to be 10.2.
As to “TTTTTTTTTCCCCCATGTACATAAATAAGTATATCT [XGTACX_site6965]”, the “gcPBM binding intensity (ln)” value turned out to be 9.58.
Turning to “GCGTGCGTGTACTTAACACACATAATATGTATTTAT [CACACA_site1247]”, the “gcPBM binding intensity (ln)” value worked out at 9.83.
On to “TATATATATAAATACAGTACATATATAATATTTTGA [XGTACX_site637]”, for which the “gcPBM binding intensity (ln)” value was 9.69.
In the case of “AAAAATATATATATATATATATATATATTATTTTTT [TGCATGCA_negctrl_site378]”, the “gcPBM binding intensity (ln)” value came out at 9.41.
Turning to “TAACTTAATTTTAATGCACACAATTTATATATATAT [CACACA_site6022]”, the “gcPBM binding intensity (ln)” value came to 9.8.
“AATTATATGAAATAAACACACATATGCAATATTGCA [CACACA_site6988]”: the “gcPBM binding intensity (ln)” value is 9.76.
With “ATATGTACTATACGCACACACACTCACATATATATA [CACACA_site3239]” the figure was 10.6; with “TTCAAGATTTATTATACACACATATTAAAATATATA [CACACA_site4479]”, 9.59.
Take “AAACATTTTCATTTGACACACATCATATATTTATAT [CACACA_site1794]”: the “gcPBM binding intensity (ln)” value was found to be 10.1.
Consider “AATCTATCAAAGTGTACATGCAATAAAAAAAAAAAA [TGCATGCA_site103]”, for which the “gcPBM binding intensity (ln)” value was 9.59.
Regarding “AAAAAATTATTATGAACACACATTTATTATATTCAT [CACACA_site1566]”, the “gcPBM binding intensity (ln)” value is 9.76.
The same measure for GAGGTCTTTTTTAATGTGCACATATATATATATATA: 9.84; for “TTTTTTTATTAATGTAGTACAATATAATGTTATATT [XGTACX_site2295]”: 9.6; for “TTTTTTTTTTTTTTTACACACTCCAATAAAAAAGAA [CACACA_site2119]”: 9.42.
For the sequence “TATAAAAATATATTTACACACTATAAATATCGAAAG [CACACA_site6896]”, the “gcPBM binding intensity (ln)” value turned out to be 9.7.
The same measure for “TAATTTATAAATATAATATTTATGTATATGATGTTT [CACACA_negctrl_site464]”: 9.56; for “ATTATATATATCAGGTGTACGTAAAAAAAATGGACG [XGTACX_site1028]”: 9.88.
As for “ATTAAGTATATTTCTGCACACAAAAAAAAAAACCAA [CACACA_site9342]”, the “gcPBM binding intensity (ln)” value turned out to be 9.88.
Regarding “GTATATATATATAAAAGTACATGTTATGAAAAAAAA [XGTACX_site5410]”, the “gcPBM binding intensity (ln)” value is 9.84.
Regarding “TATATATAGAAACACACACACATATATATATATATA [CACACA_site773]”, the “gcPBM binding intensity (ln)” value worked out at 10.5.
“TTTTTTCTCAAAAAAAAAACCTATGGTTATTAAGAT [XGTACX_negctrl_site534]”: the “gcPBM binding intensity (ln)” value was 9.23.
Take “TATAAGAAAAATAACACACACATAAACATAAATACA [CACACA_site5536]”: the “gcPBM binding intensity (ln)” value was 10.3.
With “AAAAAAAAAAAAAAATGTACATAAAAATGATATAAT [XGTACX_site4096]” the figure was 9.96.
AAAATTTATAGTATGGTGCATAAAAATATATATATA: the “gcPBM binding intensity (ln)” value worked out at 9.7.
Consider “TTATAATTCTATTATCTGTTCTTTTTATATTTTTTT [CACACA_negctrl_site855]”, for which the “gcPBM binding intensity (ln)” value turned out to be 9.91.
Turning to “TTCTAAACACATTGACAAATTAATATATTACAGCAA [GTGCAC_negctrl_site121]”, the “gcPBM binding intensity (ln)” value stood at 9.43.
With “TTATTTTTCAATGAAAAGGATTATATATATATATAT [CACACA_negctrl_site757]”, the “gcPBM binding intensity (ln)” value amounted to 9.36.
As for “TGATGAAAATTTTTCTGTACAAAAAGTATGAAGGTA [XGTACX_site8901]”, the “gcPBM binding intensity (ln)” value is 9.62.
Regarding “ACAATATATAAAATATGTACATAATATATATAATGA [XGTACX_site8731]”, the “gcPBM binding intensity (ln)” value worked out at 9.77.
Regarding CCTAATTTTATTAGGGTGCATTTTTAGTTAAATATA, the “gcPBM binding intensity (ln)” value amounted to 9.5.
With “TAAGTTATATGTACTACACACGTACACAAAATAAGA [CACACA_site9237]” the figure was 9.86.
As to “ATCCACAAATTAACAAGTACATATATATATATATAT [XGTACX_site1267]”, the “gcPBM binding intensity (ln)” value amounted to 9.58.
As to “TTAAGAATCTATACTAGTACATATATGTATACAAGC [XGTACX_site8025]”, the “gcPBM binding intensity (ln)” value was determined as 9.7.
In the case of “TGTAGAACAAAAAATTGTACATATTTGTAAAAAAAA [XGTACX_site3850]”, the “gcPBM binding intensity (ln)” value was found to be 9.66.
Take “ATTGTGTTAATAAAATGTACATTTTCTCTACTTTAA [XGTACX_site1199]”: the “gcPBM binding intensity (ln)” value was 9.83.
On to “TATATATATATGTGTAGTACAACAAATATGAAAAAT [XGTACX_site4059]”, for which the “gcPBM binding intensity (ln)” value was determined as 9.96.
“AATTTAATATAATGCACACATAAAAAAAAATTCAAA [CACACA_site2062]”: the “gcPBM binding intensity (ln)” value is 9.76.
With “ATGAAAACCATGACGGGTACTCATTTATTATTTTAT [XGTACX_site6724]” the figure was 9.73; with “ATTTATTTGTTTATTTGTTTATTTGTTTATTTGTTT [CACACA_negctrl_site1386]”, 9.9; with “ATCCATCTTTTAATTTGTACTTATTCTTTTTTCTTT [XGTACX_site5299]”, 10.
Turning to “ATTAGTTTTATATATAGTACATATAATTTTGAAGGT [XGTACX_site7445]”, the “gcPBM binding intensity (ln)” value worked out at 9.64.
“ATATATATATGTAATAGTACATATGATAGTTTGTCA [XGTACX_site1545]”: the “gcPBM binding intensity (ln)” value was found to be 9.88.
“TATGATATATATAATACACACATATACATAAGATCT [CACACA_site1119]”: the “gcPBM binding intensity (ln)” value was found to be 10.
For the sequence “AATATATATATATTATCACACACTCACGTTTGACAA [CACACA_site8130]”, the “gcPBM binding intensity (ln)” value was found to be 9.83.
Take “ATTATATCATATATATGTACACATATATAACATGAT [XGTACX_site7]”: the “gcPBM binding intensity (ln)” value stood at 9.62.
Consider “TAAAAAAAACGAACAAGTACACATAAAAAAAAATTA [XGTACX_site5982]”, for which the “gcPBM binding intensity (ln)” value was 9.69.
The same measure for “TTGTAATTTATTCAAACACACAATTTGGACCTTTTT [CACACA_site1063]”: 9.66; for “TATTCATAATTTTAATGTACAAAATGGTTTGTAATA [XGTACX_site8493]”: 9.43.
For the sequence “AAAGATAAATTAAAAAGTACATATTTATTCAATGTA [XGTACX_site8543]”, the “gcPBM binding intensity (ln)” value stood at 9.6.
With “CACTTTTTTTTTTACTGTACATATACAAATTAAAAA [XGTACX_site1565]”, the “gcPBM binding intensity (ln)” value is 9.5.
Take “TTTTATTTATCTTAATGTACACATTTATATATATAT [XGTACX_site8588]”: the “gcPBM binding intensity (ln)” value was determined as 9.98.
For the sequence “TATAATAATTAAAAGTGTACTAAATTTTTACATATA [XGTACX_site2523]”, the “gcPBM binding intensity (ln)” value worked out at 9.6.
With “TTAAATAAAAGGTTTAGTACTTAAAATAAGAAATGA [XGTACX_site6341]” the figure was 9.57.
Regarding “GTAAATATAAACTCAGCACACAAACATATATATGTC [CACACA_site9326]”, the “gcPBM binding intensity (ln)” value amounted to 9.99.
With “TTTTTTTTCAATGGTTGTACAAAGTAAAACAACAAA [XGTACX_site1582]” the figure was 9.36.

The values above are taken from the supplement of paper PMC11417369.
